Measured values: the supplement of paper PMC8728848
The other results are listed elsewhere or left out.

Assays:
Assay in all cases: glycan array binding signal (z-score within array); higher = stronger binding
Settings in all cases: glycan notation: IUPAC condensed, linker removed
[1] = biological target: Fuc(a1-2)[Gal(a1-3)]Gal(b1-4)[Fuc(a1-3)]Glc
How it was run: (§1)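 Glycan array data were curated from 3228 arrays in the Consortium for Functional Glycomics database and kept only where the protein sequence was available. Glycan names were converted to IUPAC-condensed notation, and columns mapping to the same glycan were averaged. The binding signal is a within-array Z-score, averaged across arrays of the same protein sequence at different concentrations or buffers and across linkers. Negative Z-scores can be read as non-binding.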

[2] = biological target: Fuc(a1-2)[Gal(a1-3)]Gal(b1-4)[Fuc(a1-3)]GlcNAc
How it was run: as §1

[3] = biological target: Fuc(a1-2)[Gal(a1-3)]Gal(b1-4)[Fuc(a1-3)]GlcNAc(b1-3)GalNAc
How it was run: as §1

[4] = biological target: Fuc(a1-2)[Gal(a1-4)]Gal(b1-4)GlcNAc
How it was run: as §1

[5] = biological target: Fuc(a1-2)[GalNAc(a1-3)]Gal
How it was run: as §1

[6] = biological target: Fuc(a1-2)[GalNAc(a1-3)]Gal(b1-3)GalNAc(a1-3)[Fuc(a1-2)]Gal(b1-4)GlcNAc
How it was run: as §1

[7] = biological target: Fuc(a1-2)[GalNAc(a1-3)]Gal(b1-3)GlcNAc
How it was run: as §1

[8] = biological target: Fuc(a1-2)[GalNAc(a1-3)]Gal(b1-3)GlcNAc(b1-2)Man(a1-3)[Fuc(a1-2)[GalNAc(a1-3)]Gal(b1-3)GlcNAc(b1-2)Man(a1-6)]Man(b1-4)GlcNAc(b1-4)GlcNAc
How it was run: as §1

[9] = biological target: Fuc(a1-2)[GalNAc(a1-3)]Gal(b1-3)GlcNAc(b1-2)Man(a1-3)[Fuc(a1-2)[GalNAc(a1-3)]Gal(b1-3)GlcNAc(b1-2)Man(a1-6)]Man(b1-4)GlcNAc(b1-4)[Fuc(a1-6)]GlcNAc
How it was run: as §1

[10] = biological target: Fuc(a1-2)[GalNAc(a1-3)]Gal(b1-3)GlcNAc(b1-3)GalNAc
How it was run: as §1

[11] = biological target: Fuc(a1-2)[GalNAc(a1-3)]Gal(b1-3)GlcNAc(b1-6)GalNAc
How it was run: as §1

[12] = biological target: Fuc(a1-2)[GalNAc(a1-3)]Gal(b1-4)Glc
How it was run: as §1

[13] = biological target: Fuc(a1-2)[GalNAc(a1-3)]Gal(b1-4)GlcNAc
How it was run: as §1

[14] = biological target: Fuc(a1-2)[GalNAc(a1-3)]Gal(b1-4)GlcNAc(b1-2)Man(a1-3)[Fuc(a1-2)[GalNAc(a1-3)]Gal(b1-4)GlcNAc(b1-2)Man(a1-6)]Man(b1-4)GlcNAc(b1-4)GlcNAc
How it was run: as §1

[15] = biological target: Fuc(a1-2)[GalNAc(a1-3)]Gal(b1-4)GlcNAc(b1-2)Man(a1-3)[Fuc(a1-2)[GalNAc(a1-3)]Gal(b1-4)GlcNAc(b1-2)Man(a1-6)]Man(b1-4)GlcNAc(b1-4)[Fuc(a1-6)]GlcNAc
How it was run: as §1

[16] = biological target: Fuc(a1-2)[GalNAc(a1-3)]Gal(b1-4)GlcNAc(b1-3)Gal(b1-4)GlcNAc
How it was run: as §1

[17] = biological target: Fuc(a1-2)[GalNAc(a1-3)]Gal(b1-4)GlcNAc(b1-3)Gal(b1-4)GlcNAc(b1-3)Gal(b1-4)GlcNAc
How it was run: as §1

[18] = biological target: Fuc(a1-2)[GalNAc(a1-3)]Gal(b1-4)GlcNAc(b1-3)GalNAc
How it was run: as §1

[19] = biological target: Fuc(a1-2)[GalNAc(a1-3)]Gal(b1-4)[Fuc(a1-3)]GlcNAc
How it was run: as §1

[20] = biological target: Fuc(a1-2)[GalNAc(a1-3)]Gal(b1-4)[Fuc(a1-3)]GlcNAc(b1-3)GalNAc
How it was run: as §1

[21] = biological target: Fuc(a1-2)[GalNAc(a1-4)]Gal(b1-4)GlcNAc
How it was run: as §1

[22] = biological target: Fuc(a1-2)[GalNAc(b1-3)]Gal
How it was run: as §1

[23] = biological target: Fuc(a1-3)GlcNAc
How it was run: as §1

[24] = biological target: Fuc(a1-3)[Gal(b1-4)]Glc6S
How it was run: as §1

[25] = biological target: Fuc(a1-3)[Gal(b1-4)]GlcNAc
How it was run: as §1

[26] = biological target: Fuc(a1-3)[Gal(b1-4)]GlcNAc(b1-2)Man
How it was run: as §1

[27] = biological target: Fuc(a1-3)[Gal(b1-4)]GlcNAc(b1-2)Man(a1-3)[Fuc(a1-3)[Gal(b1-4)]GlcNAc(b1-2)Man(a1-6)]Man(b1-4)GlcNAc(b1-4)GlcNAc
How it was run: as §1

[28] = biological target: Fuc(a1-3)[Gal(b1-4)]GlcNAc(b1-2)Man(a1-3)[Fuc(a1-3)[Gal(b1-4)]GlcNAc(b1-2)Man(a1-6)]Man(b1-4)GlcNAc(b1-4)[Fuc(a1-6)]GlcNAc
How it was run: as §1

[29] = biological target: Fuc(a1-3)[Gal(b1-4)]GlcNAc(b1-3)Gal(b1-3)[Fuc(a1-4)]GlcNAc
How it was run: as §1

[30] = biological target: Fuc(a1-3)[Gal(b1-4)]GlcNAc(b1-3)GalNAc
How it was run: as §1

[31] = biological target: Fuc(a1-3)[Gal(b1-4)]GlcNAc(b1-4)Gal(b1-4)[Fuc(a1-3)]GlcNAc
How it was run: as §1

[32] = biological target: Fuc(a1-3)[Gal(b1-4)]GlcNAc(b1-4)Gal(b1-4)[Fuc(a1-3)]GlcNAc(b1-4)Gal(b1-4)[Fuc(a1-3)]GlcNAc
How it was run: as §1

[33] = biological target: Fuc(a1-3)[Gal(b1-4)]GlcNAc(b1-6)GalNAc
How it was run: as §1

[34] = biological target: Fuc(a1-3)[Gal(b1-4)]GlcNAc(b1-6)[Gal(b1-3)GlcNAc(b1-3)]Gal(b1-4)Glc
How it was run: as §1

[35] = biological target: Fuc(a1-3)[Gal(b1-4)]GlcNAc(b1-6)[Neu5Ac(a2-3)Gal(b1-3)]GalNAc
How it was run: as §1

[36] = biological target: Fuc(a1-3)[Gal(b1-4)]GlcNAc6S
How it was run: as §1

[37] = biological target: Fuc(a1-3)[Gal3S(b1-4)]GlcNAc
How it was run: as §1

[38] = biological target: Fuc(a1-3)[Gal3S(b1-4)]GlcNAc6S
How it was run: as §1

[39] = biological target: Fuc(a1-3)[GalNAc(b1-4)]GlcNAc
How it was run: as §1

[40] = biological target: Fuc(a1-3)[GalNAc(b1-4)]GlcNAc6S
How it was run: as §1

[41] = biological target: Fuc(a1-3)[GalNAc3S(b1-4)]GlcNAc
How it was run: as §1

[42] = biological target: Fuc(a1-4)GlcNAc
How it was run: as §1

[43] = biological target: Fuc(b1-3)GlcNAc
How it was run: as §1

[44] = biological target: Gal(a1-2)Gal
How it was run: as §1

[45] = biological target: Gal(a1-3)Gal
How it was run: as §1

[46] = biological target: Gal(a1-3)Gal(b1-3)GlcNAc
How it was run: as §1

[47] = biological target: Gal(a1-3)Gal(b1-3)GlcNAc(b1-2)Man(a1-3)[Gal(a1-3)Gal(b1-3)GlcNAc(b1-2)Man(a1-6)]Man(b1-4)GlcNAc(b1-4)GlcNAc
How it was run: as §1

[48] = biological target: Gal(a1-3)Gal(b1-3)GlcNAc(b1-3)GalNAc
How it was run: as §1

[49] = biological target: Gal(a1-3)Gal(b1-3)GlcNAc(b1-6)GalNAc
How it was run: as §1

[50] = biological target: Gal(a1-3)Gal(b1-3)[Fuc(a1-4)]GlcNAc(b1-2)Man(a1-3)[Gal(a1-3)Gal(b1-3)[Fuc(a1-4)]GlcNAc(b1-2)Man(a1-6)]Man(b1-4)GlcNAc(b1-4)GlcNAc
How it was run: as §1

[51] = biological target: Gal(a1-3)Gal(b1-4)Glc
How it was run: as §1

[52] = biological target: Gal(a1-3)Gal(b1-4)GlcNAc
How it was run: as §1

[53] = biological target: Gal(a1-3)Gal(b1-4)GlcNAc(b1-3)GalNAc
How it was run: as §1

[54] = biological target: Gal(a1-3)Gal(b1-4)GlcNAc(b1-6)GalNAc
How it was run: as §1

[55] = biological target: Gal(a1-3)Gal(b1-4)[Fuc(a1-3)]GlcNAc
How it was run: as §1

[56] = biological target: Gal(a1-3)Gal(b1-4)[Fuc(a1-3)]GlcNAc(b1-2)Man(a1-3)[Gal(a1-3)Gal(b1-4)[Fuc(a1-3)]GlcNAc(b1-2)Man(a1-6)]Man(b1-4)GlcNAc(b1-4)GlcNAc
How it was run: as §1

[57] = biological target: Gal(a1-3)GalNAc
How it was run: as §1

[58] = biological target: Gal(a1-3)[Gal(a1-4)]Gal(b1-4)GlcNAc
How it was run: as §1

[59] = biological target: Gal(a1-4)Gal(b1-3)GlcNAc(b1-2)Man(a1-3)[Gal(a1-4)Gal(b1-3)GlcNAc(b1-2)Man(a1-6)]Man(b1-4)GlcNAc(b1-4)GlcNAc
How it was run: as §1

[60] = biological target: Gal(a1-4)Gal(b1-4)Glc
How it was run: as §1

B1: CvGal1 (Crassostrea virginica), A7Y0I5 (protein)
chain: MTYQISKISQPFTSYIPNGLHIGKHLLLRGRVSYGTEAFAINLQQNPEPCNGEVAFHFNPRPGEQQCVRNSFDGGSWMDEERDQPHFPFDEGRSFTLRIEVAEEGFRTYVNGKPYVNFSHRLDLGNVHYLYLTEGAEFYDISYQDRYTLPYKSEIPQQMNVGKAVRIRGASQDNDGFSVNFACDPDNENCAFHFNPRPNEGVVVRNANLGGWGDEERDYEAEFPFHPYNYFDAMFICTDDKYLVHVNDKYFTEFNHRGGVDASSFFNIVGNLDIQDVEYFEPLEDDFVKTIPSGLVKGDVLIFRGFMKPGGDTFSINFMNGYSVEDDIAFHLNPRVGEGQVVMNCCMGGAWGDEEREDIPSPLADREPFEVKVVVKKNKFKVYVNGKKCMKFAARGNLEDIKGVNIKGEAYVYEVKLERKLEDSWEYLPGGFRVGGWVVVQAIPKKGSEGFAINFRTGSDEDSDIAFHFNPRLQENCTIRNSCAGGAWGGEERDQPDFPFEKKDTCEIAIQAQPDRFVTYVNGKRYIEFNHRLPLESITCVELTGRADFFEPKFF
glycan array binding signal (z-score) [1]: -0.256
glycan array binding signal (z-score) [2]: -0.263
glycan array binding signal (z-score) [3]: -0.279
glycan array binding signal (z-score) [4]: -0.282
glycan array binding signal (z-score) [5]: -0.003
glycan array binding signal (z-score) [6]: 3.63
glycan array binding signal (z-score) [7]: 4.14
glycan array binding signal (z-score) [8]: 2.75
glycan array binding signal (z-score) [9]: 4.71
glycan array binding signal (z-score) [10]: 1.75
glycan array binding signal (z-score) [11]: 3.97
glycan array binding signal (z-score) [12]: 1.76
glycan array binding signal (z-score) [13]: 2.79
glycan array binding signal (z-score) [14]: 6.1
glycan array binding signal (z-score) [15]: 2.22
glycan array binding signal (z-score) [16]: 3.06
glycan array binding signal (z-score) [17]: 2.45
glycan array binding signal (z-score) [18]: 5.16
glycan array binding signal (z-score) [19]: -0.277
glycan array binding signal (z-score) [20]: -0.11
glycan array binding signal (z-score) [21]: -0.262
glycan array binding signal (z-score) [22]: -0.306
glycan array binding signal (z-score) [23]: -0.088
glycan array binding signal (z-score) [24]: -0.262
glycan array binding signal (z-score) [25]: -0.261
glycan array binding signal (z-score) [26]: -0.252
glycan array binding signal (z-score) [27]: -0.268
glycan array binding signal (z-score) [28]: -0.229
glycan array binding signal (z-score) [29]: -0.231
glycan array binding signal (z-score) [30]: -0.291
glycan array binding signal (z-score) [31]: -0.258
glycan array binding signal (z-score) [32]: -0.261
glycan array binding signal (z-score) [33]: -0.278
glycan array binding signal (z-score) [34]: -0.299
glycan array binding signal (z-score) [35]: -0.259
glycan array binding signal (z-score) [36]: -0.279
glycan array binding signal (z-score) [37]: -0.246
glycan array binding signal (z-score) [38]: -0.255
glycan array binding signal (z-score) [39]: -0.115
glycan array binding signal (z-score) [40]: -0.215
glycan array binding signal (z-score) [41]: -0.259
glycan array binding signal (z-score) [42]: -0.286
glycan array binding signal (z-score) [43]: -0.219
glycan array binding signal (z-score) [44]: -0.281
glycan array binding signal (z-score) [45]: -0.278
glycan array binding signal (z-score) [46]: 0.435
glycan array binding signal (z-score) [47]: -0.268
glycan array binding signal (z-score) [48]: -0.251
glycan array binding signal (z-score) [49]: -0.168
glycan array binding signal (z-score) [50]: -0.241
glycan array binding signal (z-score) [51]: -0.211
glycan array binding signal (z-score) [52]: 0.242
glycan array binding signal (z-score) [53]: -0.197
glycan array binding signal (z-score) [54]: -0.267
glycan array binding signal (z-score) [55]: -0.177
glycan array binding signal (z-score) [56]: 0.004
glycan array binding signal (z-score) [57]: -0.253
glycan array binding signal (z-score) [58]: -0.215
glycan array binding signal (z-score) [59]: -0.237
glycan array binding signal (z-score) [60]: -0.289
